Measurements as given in PubChem BioAssay AID1963576 (National Center for Advancing Translational Sciences (NCATS), 2024).
Out of some 46,000 compounds screened, about 60 (0.1%) were called active. About 3% were inconclusive and are not listed. Calls come from the whole dose curve; as a rule, active = well fitted inhibition curve with a large enough effect; inconclusive = small, poorly fitted or top-dose-only effect; inactive = no such curve, though single readings can be large or run the other way. The list shows a part of the results.

assay: Primary qHTS assay for Inhibitors of ovarian cancer metastasis using an organotypic tumor microenvironment (TME) model.; note: nearly all actives have a fitted effect of over 65% in size;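 for activity change, negative = inhibition: plate controls were DMSO wells for no effect and tomatine positive control wells for full effect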; details: SKOV3ip1-GFP adhesion/invasion on 3D omental model, fluorescence; series mostly up to 45.8 µM; activity change, negative = inhibition: at the top concentration
How it was run: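 Primary human omental fibroblast/mesothelial 3D culture pre-formed 48 h. SKOV3ip1-GFP cells added with compounds (0.36-46 umol/L), incubated 2 h RT/16 h 37 C, fixed; GFP cells quantified at 488/509 nm.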

Activity change, negative = inhibition, inactive:
Cc1nc2ccc(S(=O)(=O)NCC(=O)NCc3ccc(Cl)cc3)cc2s1 -12.9%
COc1ccccc1N1CCN(c2ncc3c(n2)CCN(Cc2ccccc2C)C3)CC1 4.14%
Cc1ccc(OCC(=O)OCc2cc(=O)n3ccsc3n2)cc1C -5.09%
Cc1nn(-c2ccccc2)c(-n2cccc2)c1C(=O)NCCCN1CCN(c2ccccc2F)CC1 -3.28%
COc1cc(Cl)c(NC(=O)CN2C(=O)c3cccnc3Sc3ccccc32)c(OC)c1 14.3%
CC(C)c1ccc(NC(=O)Cn2nnc(C(=O)NCCc3ccccc3)c2N)cc1 -10.2%
Cc1cccc2nc(-c3ccc(Cl)s3)c(Nc3ccc4c(c3)OCCO4)n12 -19.7%
COc1ccc(NC(=O)C(Cc2ccccc2)NS(=O)(=O)c2ccc3c(c2)oc(=O)n3C)c(OC)c1 (stereo unspecified) 3.45%
CCOc1ccc(-c2cc3nc(C4CCN(C(=O)OC(C)(C)C)CC4)c(C(=O)Nc4cccc(Cl)c4C)cn3n2)cc1 6.66%
O=C1NC(NS(=O)(=O)c2ccccc2)(C(F)(F)F)C(=O)N1CCc1ccccc1 (stereo unspecified) 30.8%
CCOC(=O)c1ccc(NC(=O)c2noc3c2CCCC3)cc1 -2.96%
Brc1ccc(-c2cn3cc(Cc4ccccc4)sc3n2)cc1 -2.6%
COc1ccc(Cn2c(CNC(=O)Cc3ccc(OC)c(OC)c3)nc3cccnc32)cc1 -7.95%
O=S(=O)(NCCc1nnc2ccc(SCc3cccc(Cl)c3)nn12)c1ccccc1 15.6%
CC(=O)N1CCCc2cc(S(=O)(=O)N3CCCC(C(=O)Nc4ccc(F)cc4F)C3)ccc21 (stereo unspecified) 8.75%
Cc1ccc2[nH]c3c(=O)n(CC(=O)N4CCN(c5ccccc5F)CC4)ncc3c2c1 7.8%
CCN(c1ccccc1)c1ncnc2c1cnn2-c1ccc(OC)cc1 4.66%
O=C(CCC(=O)N1CCOc2ccccc21)NCc1cccs1 0.974%
O=C(NCC(c1ccco1)S(=O)(=O)c1ccc(Cl)cc1)c1ccc(C(F)(F)F)cc1 (stereo unspecified) 5.19%
COc1ccc(-c2cc(C(F)(F)F)c(C#N)c(SCC(=O)Nc3cccc(C)c3)n2)cc1 11.8%
CCC(C)n1c(=O)c2sccc2n2c(CCCC(=O)Nc3ccc(F)cc3)nnc12 (stereo unspecified) -0.486%
CCN(CCCNC(=O)CN1N=C(c2ccccc2)CCC1=O)c1cccc(C)c1 6.16%
O=c1[nH]c(=O)n(C2CCCO2)cc1F (stereo unspecified) 3.72% [at 92.2 µM]
CCOC(=O)CCc1c(C)c2cc3c(c(C)c2oc1=O)OCN(CCc1ccccc1OC)C3 3.8%
COc1ccc(NC(=O)c2ccco2)cc1NC(=O)c1cccc(C)c1OC 5.11%
Cc1ccc(SCC(=O)Nc2ccc(O)c(-c3nc4cc(C)ccc4o3)c2)cc1 -3.73%
Cc1ccc(NC(=O)NC(C)c2c(-n3cccc3)sc(C)c2C)c(C)c1 (stereo unspecified) -19.2%
Cc1ccccc1-n1c(SCC(=O)c2ccccc2)nnc1-c1ccc(F)cc1 -6.63%
Cc1ccc(CNC(=O)CCCCCn2c(=O)c3sccc3n(CC(=O)C(C)(C)C)c2=O)cc1 2.11%
Cc1ccc2c(CN3CCN(c4ccc(Cl)cc4)CC3)cc(=O)oc2c1 -0.148%
COc1ccc(Cn2c(CCC(=O)Nc3cc(C)cc(C)c3)nc3cccnc32)cc1 -20.4%
O=C(Nc1ccccc1)C1CCN(S(=O)(=O)c2ccc3c(c2)CCCN3C(=O)C2CCC2)CC1 14.2%
Cc1ccc(NC(=O)CSc2nc(=O)n(Cc3ccncc3)c3c2CCC3)cc1Cl -5.21%
CCOc1cc(CNC(=O)CSc2n[nH]c(-c3ccccc3)n2)cc(OCC)c1OCC -0.391%
COC(=O)c1cc(NC2(c3ccccc3)C(=O)c3ccccc3C2=O)cc(C(=O)OC)c1 -3.98%
Cc1ccc(Cl)cc1N(C)C(=O)c1sc2nc3n(c(=O)c2c1C)CCCC3 -1.53%
COc1ccc(Nc2ncc(C(=O)Nc3cccc(OC)c3)c3ccccc23)cc1 -13.3%
Cn1c(=O)c2c(SCC(=O)Nc3ccc(F)cc3F)nc(C3CCCC3)nc2n(C)c1=O 10.8%
COc1ccccc1NC(=O)CSc1oc(-c2ccc(F)cc2)nc1S(=O)(=O)c1ccc(Br)cc1 -4.97%
Cc1ccccc1CNC(=O)c1ccc2[nH]c(C)c(C)c2c1 -8.35%
C[C@]12CC[C@@H]3c4ccc(O)cc4C[C@@H](CCCCCCCCCS(=O)CCCC(F)(F)C(F)(F)F)[C@H]3[C@H]1CC[C@H]2O (stereo partly specified) -17.6%
Cc1ccc(C)c(NC(=O)Cn2ccn(-c3ccc(F)cc3)c(=O)c2=O)c1 -4.06%
CSc1cccc(NC(=O)CN2C(=O)COc3ccc(S(=O)(=O)N4CCC(C)CC4)cc32)c1 -2.63%
Cc1cc(C)cc(Nc2cc(C)nc3nc(-c4ccco4)nn23)c1 6.09%
Cc1ccc(-c2nc3c4ccccc4n(CC(=O)N4CCN(c5ccc(F)cc5)CC4)c(=O)n3n2)cc1 6.46%
CCOC(=O)c1c(NC(=O)c2cc(-c3ccc(Cl)cc3)on2)sc(C)c1C 5.96%
CCC(C)NC(=O)Cn1c(-c2cccs2)cc2cc(Cl)ccc21 (stereo unspecified) -0.367%
Cc1ccc(CN(C(=O)c2ccccc2[N+](=O)[O-])c2ccccn2)cc1 1.52%
O=S(=O)(NCCc1csc2nc(-c3ccc(F)cc3)nn12)c1ccc(Oc2ccccc2)cc1 -0.151%

outcome, inactive:
Cc1nc(N2CCOCC2)c2c(C(=O)N3CCN(c4cccc(C(F)(F)F)c4)CC3)c(C)oc2n1
Cn1cc(CCCC(=O)NCc2ccc(F)cc2)c2ccccc21
CC1CCN(S(=O)(=O)c2ccc3[nH]ccc3c2)CC1
Cc1cc(N2CCN(C)CC2)nc2ccc(NC(=O)Nc3ccc(F)cc3)cc12
COc1cccc(CC(=O)Nc2c(C(=O)N3CCN(c4ccccc4)CC3)oc3ccccc23)c1
Cc1ccc(Cn2c(SCc3ccc(C(=O)O)cc3)nc3cccnc32)cc1
O=C(Cn1c(=O)n(Cc2ccco2)c(=O)c2sc3ccccc3c21)Nc1ccc(F)cc1F
CSc1ncc(Cl)c(C(=O)Nc2c(C(=O)c3ccc(C)cc3)oc3ccccc23)n1
CCOc1ccc(CCNC(=O)c2ccc3nc(N4CCC(C)CC4)sc3c2)cc1OCC
CCOC(=O)c1cnc(N2CCN(c3ccc(C)cc3C)CC2)c2ccccc12
CC(C)(C)c1ccccc1NC(=O)c1cnn2c(C(F)F)cc(-c3ccccc3)nc12
Cc1cc(N2CCC(C(=O)NCCC(C)C)CC2)n2nc(C)c(-c3ccc(Cl)cc3)c2n1
